According to article PMC4336329 (PLoS ONE, 2015):
The campaign covered roughly 310,000 compounds. About 14,000 (4.5%) showed an effect of 50% or more. The effect is printed as a negative number. The list shows a part of the results.

The compounds below were run against human ether-à-go-go-related gene (hERG) potassium channel (human, UniProt Q12809) (assay: primary screen, population patch clamp on CHO cells stably expressing hERG).
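Note: peak tail current of the secondary pulse compared with the same well before compound.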

Chain of human ether-à-go-go-related gene (hERG) potassium channel (Q12809 whole entry, looked up): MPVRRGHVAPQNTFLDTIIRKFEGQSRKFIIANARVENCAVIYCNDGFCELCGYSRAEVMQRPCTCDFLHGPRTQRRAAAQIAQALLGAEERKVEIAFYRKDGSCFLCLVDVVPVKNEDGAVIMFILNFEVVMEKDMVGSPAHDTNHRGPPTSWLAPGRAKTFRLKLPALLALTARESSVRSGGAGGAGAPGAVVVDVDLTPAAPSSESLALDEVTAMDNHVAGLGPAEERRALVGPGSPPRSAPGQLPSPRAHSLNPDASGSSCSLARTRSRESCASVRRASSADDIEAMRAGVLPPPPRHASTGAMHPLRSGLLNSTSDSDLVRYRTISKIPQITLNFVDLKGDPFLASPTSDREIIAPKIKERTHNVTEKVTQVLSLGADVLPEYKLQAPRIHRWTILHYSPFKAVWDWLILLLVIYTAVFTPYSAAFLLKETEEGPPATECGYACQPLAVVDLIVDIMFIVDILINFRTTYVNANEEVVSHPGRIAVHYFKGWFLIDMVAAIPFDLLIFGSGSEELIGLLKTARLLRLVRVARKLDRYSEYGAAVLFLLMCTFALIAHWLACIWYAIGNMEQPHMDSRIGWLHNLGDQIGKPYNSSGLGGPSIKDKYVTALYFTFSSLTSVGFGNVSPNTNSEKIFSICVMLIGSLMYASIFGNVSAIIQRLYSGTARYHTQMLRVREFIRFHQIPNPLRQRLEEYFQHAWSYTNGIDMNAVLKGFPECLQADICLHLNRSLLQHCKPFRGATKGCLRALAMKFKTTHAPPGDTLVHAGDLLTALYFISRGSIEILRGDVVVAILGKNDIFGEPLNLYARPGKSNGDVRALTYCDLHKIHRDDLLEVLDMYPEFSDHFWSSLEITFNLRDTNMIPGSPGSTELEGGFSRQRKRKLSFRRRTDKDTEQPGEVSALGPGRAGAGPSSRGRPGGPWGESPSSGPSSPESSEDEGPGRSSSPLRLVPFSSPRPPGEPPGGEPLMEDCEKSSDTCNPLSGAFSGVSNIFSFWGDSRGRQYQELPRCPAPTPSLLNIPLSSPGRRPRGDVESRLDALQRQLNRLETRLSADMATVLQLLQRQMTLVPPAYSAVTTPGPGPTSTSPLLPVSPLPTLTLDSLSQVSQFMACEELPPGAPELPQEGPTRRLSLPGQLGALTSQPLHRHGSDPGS

| Compound | hERG current change (%, negative = inhibition) at 10uM [%] |
| --- | --- |
| CCOc1ccccc1C(=O)Nc1ccccc1O | 5.59 |
| CCN(CC)c1ccc(/C=C2/C(=O)NC(=O)N(CC3CCCO3)C2=O)cc1 (stereo not drawn) | -8.27 |
| NC(=O)C1(N2CCCCC2)CCN(C(=O)c2ccccc2)CC1 | -11.8 |
| COc1ccc(CCN2C(=O)CSC2c2cccc([N+](=O)[O-])c2)cc1OC (stereo not drawn) | -3.39 |
| COc1ccc(/C=C(\NC(=O)c2ccco2)C(=O)N2CCOCC2)cc1 | 0.365 |
| CCn1c(SCC(=O)NCc2cccs2)nnc1-c1cccs1 | -20.9 |
| CC(C)(C)C(=O)NC(=S)Nc1ccc(C(F)(F)F)cc1 | 22.1 |
| COC(=O)c1c(NC(=O)C(C)(C)C)sc2c1CCN(Cc1ccccc1)C2.Cl | -34.7 |
| O=C(CSc1nncn1-c1ccccc1)Nc1cc(F)ccc1F | 25.6 |
| CC(=O)c1cccc(Nc2cc(C)nc3c(C)cccc23)c1.Cl | -72.8 |
| Cc1sc2nc(CN3CCCC3)nc(N3CCN(S(=O)(=O)c4cccs4)CC3)c2c1C | -70.7 |
| COc1ccc2cc(CN(CCO)C(=O)c3ccccc3F)c(=O)[nH]c2c1 | 16.2 |
| C=CCn1c(NCc2ccccc2O)nc2ccccc21 | 13.8 |
| CCC(NS(=O)(=O)c1ccc2c(c1)Cc1cc(S(=O)(=O)NC(CC)C(=O)O)ccc1-2)C(=O)O (stereo not drawn) | 20.5 |
| CCCc1ccc(-c2cc(N)n[nH]2)cc1 | 18.9 |
| COc1ccc([C@H]2CC(=O)C=C(c3c(C)cc(C)cc3C)C2)cc1 | 8.65 |
| Cl.Oc1ccccc1CNCc1ccccc1 | -4.43 |
| COc1cccc(-c2nn(-c3ccc(C)cc3)cc2C(=O)N(C)CC(=O)Nc2cccc(F)c2)c1 | 0.34 |
| Cl.OCCCN1CCN(CCCOc2ccccc2-c2ccccc2)CC1 | -69.6 |
| COc1ccc(-c2nnc(NC(=O)c3ccccc3C)o2)cc1 | 5.87 |
| COc1ccc([N+](=O)[O-])cc1NC(=O)c1ccc(N2C(=O)CCC2=O)cc1 | 7.55 |
| CC(=O)Nc1ccccc1OCc1cnc(Cl)s1 | 15.1 |

| Compound | hERG current change (%, negative = inhibition) at 10uM [%] |
| --- | --- |
| O=C(Cc1ccc(Cl)cc1)Nc1ccccc1N1CCN(C(=O)c2ccccc2)CC1 | -72.1 |
| O=C(CN(Cc1ccccc1Cl)C(=O)c1csnn1)NC1CCCC1 | -13.6 |
| Cc1cc(NC(=S)N(CCCN2CCN(C)CC2)Cc2ccco2)ccc1Cl | -68.2 |
| Cc1ccc(CNC(=O)CN(Cc2ccccc2)S(C)(=O)=O)cc1 | -30 |
| N#Cc1ccccc1S(=O)(=O)N1CCN(C(=O)CCC2CCCC2)CC1 | -17.1 |
| Cc1c(C(=O)N2CCN(Cc3ccccc3)CC2)oc2c1C(=O)CC(C)(C)C2 | 8.43 |
| COc1cccc(/C=N/NC(=O)CNC(=O)C(c2ccccc2)c2ccccc2)c1O | 26.9 |
| O=C(CCC1CCCCC1)N1CCN(Cc2ccc3c(c2)OCO3)CC1 | -67.2 |
| CN1C(=O)c2cccc3c(S(=O)(=O)N4CCCC4C(=O)O)ccc1c23 (stereo not drawn) | 7.28 |
| COc1ccc(-c2nnn(CC(=O)N(CC(=O)NC3CCCC3)c3ccccc3)n2)cc1OC | -23.9 |
| O=C(CCN1C(=O)/C(=C\c2ccco2)SC1=S)Nc1ccc(C(=O)O)c(O)c1 | 19.6 |
| O=C(COc1cc2oc(=O)c3c(c2cc1Cl)CCCC3)NCC1CCC(C(=O)O)CC1 (stereo not drawn) | 12.2 |
| CCOc1ccc(C(=O)Nc2cc(OC)ccc2OC)cc1 | -20.6 |
| CCCc1nn(C)c2c(=O)[nH]c(-c3cc(S(=O)(=O)N(CCO)CCO)ccc3OCC)nc12 | 0.59 |
| CCC(=O)NC(=S)Nc1cccc(-c2nc3ncccc3o2)c1 | 30 |
| S=C1SCN(Cc2ccccn2)CN1Cc1ccco1 | 16.2 |
| Cc1cc(C(=O)Nc2ccc(N3CCCCC3)cc2)no1 | 4.25 |
| Cc1ccn(C(=O)c2ccc(NC(=O)CC(C)C)cc2)n1 | 17.6 |
| COCc1ccc(C(=O)N2CCCC(Nc3ccc(F)c(F)c3)C2)s1 (stereo not drawn) | 11.9 |
| COc1cc(CC(=O)Nc2ccccc2N2CCOCC2)cc(OC)c1OC | -11.5 |
| Cn1c(=O)c2c(nc(SCCN3CCOCC3)n2Cc2ccccc2Cl)n(C)c1=O | -36.8 |
| COC(=O)c1ccc(/C=C/C(=O)c2cccc(OC)c2)cc1 | -2.07 |

| Compound | hERG current change (%, negative = inhibition) at 10uM [%] |
| --- | --- |
| COc1ccc(N2CCN(Cc3nc4c(c(=O)n(C)c(=O)n4C)n3C(C)C(C)=O)CC2)cc1 (stereo not drawn) | -22.4 |
| CN(C(=O)COC(=O)c1ccc2ccccc2n1)C1CCS(=O)(=O)C1 (stereo not drawn) | 24.3 |
| C[C@H](NC(=O)C1(c2ccccc2)CCN(C(=O)OC(C)(C)C)CC1)C(=O)N[C@@H](C(=O)O)c1ccccc1 | 5.62 |
| CCOc1ccc(CCNC(=O)Cc2nn[nH]n2)cc1OCC | -5.13 |
| Cc1ccc(S(=O)(=O)c2c(CO)c(-c3ccccc3)nn2C)cc1 | -9.95 |
| COc1ccc(CN(C(=O)c2ccc(C)cc2)c2cccc(N)c2)cc1 | 10 |
| CC12CC3(C)CC(C)(C1)CC(C(=O)NC(=S)N1CCCC1)(C2)C3 | 24.5 |
| CC(=O)c1c(C)[nH]c(C(=O)OCc2ccc(F)cc2Cl)c1C | 8.34 |
| Cc1cc2nc3n(c2cc1C)CC1CC(C(=O)NCCc2cccs2)N(C)C31 (stereo not drawn) | -38.5 |
| COCC(=O)N1CCC(n2nnc3cc(C(F)(F)F)ccc32)CC1 | -22 |
| COc1ccc(CNC(=O)c2ccc(C(C)(C)C)cc2)cc1 | 0.683 |
| CC(C)(C)c1ccc(C(=O)Oc2ccccc2CCC(=O)O)cc1 | 15.9 |
| Cc1ccc(S(=O)(=O)c2nc(C)oc2N2CCOCC2)cc1 | 6.06 |
| CN1CCCN(Cc2cccc3ccccc23)CC1 | 8.91 |
| CSc1ccccc1NC(=O)Cc1ccccc1[N+](=O)[O-] | 12.6 |
| CCOCCCNC(=O)c1cc(Cl)c(NC(=O)C2=C(C)OCCS2)cc1OC | -9.78 |
| Cc1ccc(Nc2cc(=O)[nH]c(=O)[nH]2)cc1Cl | 8.98 |
| COC(=O)c1ccccc1NC(=O)CN1CCCCCC1 | 8 |
| COc1cccc(NC(=O)Cn2cnc3c(oc4nc5c(cc43)CCCC5)c2=O)c1 | 13.2 |
| O=c1c(C/C=C/c2ccccc2)c(O)ccn1Cc1cccc(Cl)c1 | 24.2 |
| Cn1c(SCc2ccccc2)nnc1-c1c[nH]c2ccccc12 | 12.3 |
| CCCN1CCN(C(=O)CCCNC(=O)c2ccc(Cl)cc2)CC1 | -0.957 |

| Compound | hERG current change (%, negative = inhibition) at 10uM [%] |
| --- | --- |
| Cc1c(C)c2ccc(OCC(=O)N3C[C@H]4C[C@@H](C3)c3cccc(=O)n3C4)cc2oc1=O | 3.23 |
| COc1ccc(/C=c2/sc3n(c2=O)C(c2ccccc2OC)C2=C(N=3)c3ccccc3CC2)cc1O (stereo not drawn) | 2.43 |
| CC1(C)CC(=O)C(CC2C(=O)CC(C)(C)CC2=O)C(=O)C1 | 17 |
| Cc1cc(C)c2oc(C(=O)N(Cc3ccc(F)cc3)C3CCS(=O)(=O)C3)cc(=O)c2c1 (stereo not drawn) | -43.9 |
| COc1ccc(NC(=O)CCNS(=O)(=O)c2ccc3c(c2)c(=O)n(C)c(=O)n3C)cc1OC | 21.4 |
| CC1CC(=O)C2=C(C1)Nc1ncnn1C2c1ccccc1 (stereo not drawn) | 15.5 |
| CC(C)N1C(=O)N(c2ccccc2)C(C)(O)CC1(C)C (stereo not drawn) | 3.75 |
| COc1cccc(CN(C)C(=O)c2ccccc2SCC(=O)N2CCCC2)c1 | -3.76 |
| CC(C)c1ccccc1NC(=O)COC(=O)CCN1C(=O)/C(=C\C=C\c2ccccc2)SC1=S | 8.57 |
| CS(=O)(=O)N1CCN(c2ccc([N+](=O)[O-])c(NCc3cccnc3)c2)CC1 | -7.21 |
| O=C(c1ccco1)N(Cc1cccc(F)c1)C1CCS(=O)(=O)C1 (stereo not drawn) | -5.78 |
| Cc1ccc(S(=O)(=O)Cn2nnnc2C(C(C)C)N2CCSCC2)cc1 (stereo not drawn) | -2.25 |
| CCOC(=O)Cn1nc(C)c(NC(=O)COc2ccc(C)c(C)c2)c1C | 12.2 |
| Cc1cccc(N2C(=O)C(Oc3ccc(Cl)cc3Cl)C2C(=O)O)c1C (stereo not drawn) | 9.02 |
| Cn1c(O)c(/C=N/c2ccccn2)c(=O)n(C)c1=O | -0.417 |
| CCOC(=O)N1CCc2c(sc3c2c(=O)n(Cc2ccccc2)c(=O)n3Cc2ccc(C)cc2)C1 | 17.9 |
| O=C1C=C(c2ccc3ncccc3c2)C[C@@H](c2ccc3c(c2)OCO3)C1 | 1.59 |
| CC1=NN(C(C#N)c2ccc(F)cc2)C(C)(C)C1 (stereo not drawn) | 5.24 |
| CCCCc1noc(-c2c(-c3ccccc3Cl)noc2C)n1 | -3.35 |
| CCNC(=S)NNC(=O)CCn1c2ccccc2c2ccccc21 | 14.4 |
| Cc1coc2cc3oc(=O)c(CCC(=O)NCc4ccccn4)c(C)c3cc12 | -1.39 |
